Data on 24 molecules can be found in paper PMC4336329 (PLoS ONE, 2015).

Molecules are shown by their SMILES. The campaign covered roughly 310,000 compounds. About 2,200 (0.71%) showed an effect of 50% or more. The effect is printed as a negative number. Some of the results follow.

The test deals with human ether-à-go-go-related gene (hERG) potassium channel (human, UniProt Q12809). The test can be described thus: primary screen, population patch clamp on CHO cells stably expressing hERG.
Sequence of human ether-à-go-go-related gene (hERG) potassium channel (Q12809 whole entry, looked up): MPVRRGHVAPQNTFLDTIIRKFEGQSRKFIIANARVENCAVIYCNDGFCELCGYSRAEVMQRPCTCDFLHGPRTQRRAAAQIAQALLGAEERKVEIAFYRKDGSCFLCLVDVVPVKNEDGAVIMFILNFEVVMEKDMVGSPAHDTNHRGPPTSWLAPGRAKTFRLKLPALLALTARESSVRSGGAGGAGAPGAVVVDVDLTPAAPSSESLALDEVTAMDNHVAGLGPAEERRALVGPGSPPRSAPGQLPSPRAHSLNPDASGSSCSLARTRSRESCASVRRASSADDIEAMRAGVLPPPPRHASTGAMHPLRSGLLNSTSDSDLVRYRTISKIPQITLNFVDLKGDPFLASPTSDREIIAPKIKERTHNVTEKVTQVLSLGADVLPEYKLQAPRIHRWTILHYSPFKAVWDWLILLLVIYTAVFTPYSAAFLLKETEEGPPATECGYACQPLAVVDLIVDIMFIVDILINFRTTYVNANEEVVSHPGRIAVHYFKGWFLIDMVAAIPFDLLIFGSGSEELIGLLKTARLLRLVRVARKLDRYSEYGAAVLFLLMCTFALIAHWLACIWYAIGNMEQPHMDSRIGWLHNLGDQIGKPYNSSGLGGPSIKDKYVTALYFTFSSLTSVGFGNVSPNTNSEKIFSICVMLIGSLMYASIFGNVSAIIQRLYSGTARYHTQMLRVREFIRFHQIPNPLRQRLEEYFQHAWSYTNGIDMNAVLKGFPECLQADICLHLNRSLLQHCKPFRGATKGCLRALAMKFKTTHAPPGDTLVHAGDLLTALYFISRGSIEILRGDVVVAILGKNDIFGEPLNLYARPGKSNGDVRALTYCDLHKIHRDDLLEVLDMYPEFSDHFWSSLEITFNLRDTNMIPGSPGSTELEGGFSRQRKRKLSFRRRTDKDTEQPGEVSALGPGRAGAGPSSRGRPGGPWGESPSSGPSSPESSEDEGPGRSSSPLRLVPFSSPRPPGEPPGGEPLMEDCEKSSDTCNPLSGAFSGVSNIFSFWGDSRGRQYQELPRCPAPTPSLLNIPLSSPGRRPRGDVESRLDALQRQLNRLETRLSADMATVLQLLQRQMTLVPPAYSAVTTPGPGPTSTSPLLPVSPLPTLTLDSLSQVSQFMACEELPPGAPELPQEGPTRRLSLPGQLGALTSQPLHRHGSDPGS
With `CCOc1ccc(C(=O)NCC(=O)NNC(=O)C2COc3ccccc3O2)cc1OCC` (stereo not drawn), the “hERG current change (%, negative = inhibition) at 1uM” value is 8.79%.

Regarding `CN(C)c1nc(SCC#N)nc(N(C)C)n1`, the “hERG current change (%, negative = inhibition) at 1uM” value was 4.35%.

`C=CCc1ccccc1OCC(=O)N/N=C/c1ccc(OC(C)=O)cc1OC(C)=O`: the “hERG current change (%, negative = inhibition) at 1uM” value was 13.6%.

With `CC(OC(=O)c1cccn1C)C(=O)Nc1ccc2c(c1)OCO2` (stereo not drawn), the “hERG current change (%, negative = inhibition) at 1uM” value was -10.7%.

With `CCOc1cc(/C=C/C(=O)Nc2ccc(C(=O)NCCN(CC)CC)cc2)ccc1OCC(C)C`, the “hERG current change (%, negative = inhibition) at 1uM” value amounted to 20.9%.

As for `CC(=O)Nc1ccc(OCC(O)Cn2cncn2)cc1` (stereo not drawn), the “hERG current change (%, negative = inhibition) at 1uM” value is recorded as 19%.

As for `CS(=O)(=O)Nc1ccccc1C(=O)Nc1ccc2c(c1)OCCO2`, the “hERG current change (%, negative = inhibition) at 1uM” value turned out to be 17.2%.

For the molecule `C[C@@]12N[C@@H](Cc3ccccc31)c1ccccc12.O=C(O)/C=C\C(=O)O`, the “hERG current change (%, negative = inhibition) at 1uM” value turned out to be 13.9%.

For the molecule `CC1CCCCC1NC(=O)COC(=O)c1cc(=O)c2ccccc2o1` (stereo not drawn), the “hERG current change (%, negative = inhibition) at 1uM” value turned out to be 7.83%.

`N#CCC(=O)NNc1c([N+](=O)[O-])cc(C(F)(F)F)cc1[N+](=O)[O-]`: the “hERG current change (%, negative = inhibition) at 1uM” value is on record as 20.1%.

In the case of `CC(=O)c1ccc(N(C(=O)Cn2nnc(-c3ccccc3)n2)C(C(=O)NC2CCCCC2)c2ccccn2)cc1` (stereo not drawn), the “hERG current change (%, negative = inhibition) at 1uM” value amounted to 9.02%.

With `COc1ccc(OCC(=O)NC(=S)Nc2ccccc2F)cc1`, the “hERG current change (%, negative = inhibition) at 1uM” value turned out to be 3.81%.

Consider `C=CCOc1ccc(/C=N/NC(=O)C(C)Sc2ccccn2)cc1OC` (stereo not drawn), for which the “hERG current change (%, negative = inhibition) at 1uM” value is reported as 10.6%.

Consider `CNC(CC(=O)c1ccc([N+](=O)[O-])cc1)C(Cl)(Cl)Cl` (stereo not drawn), for which the “hERG current change (%, negative = inhibition) at 1uM” value was 12.6%.

Turning to `Nc1nonc1-n1nnc(C(=O)N/N=C/c2ccc(OCc3ccccc3F)cc2)c1CNc1ccccc1`, the “hERG current change (%, negative = inhibition) at 1uM” value is recorded as 19%.

Regarding `O=C(CN1C(=O)C2CC=CCC2C1=O)Nc1nc2ccc(F)cc2s1` (stereo not drawn), the “hERG current change (%, negative = inhibition) at 1uM” value came out at 6.54%.

`COc1ccc(C(=O)C2(C)N(O)C(C)C(c3cccs3)=[N+]2[O-])cc1` (stereo not drawn): the “hERG current change (%, negative = inhibition) at 1uM” value amounted to 7.05%.

Turning to `CCOc1ccc2[nH]c(=O)c(CN(Cc3cccs3)Cc3nnnn3C(C)(C)CC)cc2c1`, the “hERG current change (%, negative = inhibition) at 1uM” value is given as -15.2%.

In the case of `COc1cccc(N2CC(C(=O)Nc3nnc(SCCN4CCOCC4)s3)CC2=O)c1` (stereo not drawn), the “hERG current change (%, negative = inhibition) at 1uM” value was determined as 5.34%.

On to `O=CNCC(=O)NCCc1ccc(Cl)cc1`, for which the “hERG current change (%, negative = inhibition) at 1uM” value turned out to be 9.55%.

On to `Cc1cc(C)cc(NC(=O)Nc2c(Br)cnn2C)c1`, for which the “hERG current change (%, negative = inhibition) at 1uM” value was -13%.

As for `CC(=O)N1c2ccc(S(=O)(=O)N(C)c3cc(C)ccc3C)cc2CC1C` (stereo not drawn), the “hERG current change (%, negative = inhibition) at 1uM” value is recorded as 13.9%.

`Cc1cc(-c2nnc(CCC(=O)N3CCN(Cc4cccc(F)c4)CC3)o2)c(C)o1`: the “hERG current change (%, negative = inhibition) at 1uM” value is given as 6.7%.

In the case of `Cc1c(NC(=S)N/N=C\c2ccccc2O)c(=O)n(-c2ccccc2)n1C`, the “hERG current change (%, negative = inhibition) at 1uM” value is on record as 0.605%.
